Test results from the supplement of paper PMC4967469.

Assays:
Experiment in all cases: Viability of human cancer cell lines after 72 h of drug (GDSC screen)
[1] = compound: Cc1ccc(-n2nc(C(C)(C)C)cc2NC(=O)Nc2ccc(OCCN3CCOCC3)c3ccccc23)cc1 [BIRB 0796]; conditions: top dose 10 µM; top dose inferred
Method: (§1)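 Human cancer cell lines in 384-well plates, medium with 10% serum, drug for 72 h over a 256-fold dose range (nine 2-fold or five 4-fold steps up to the top dose). Adherent lines were fixed and stained with the nucleic acid dye Syto60, suspension lines read with resazurin; signal relative to control wells, capped at 0 and 100%. One two-parameter sigmoid per drug and line, fitted in a mixed model over all curves with the slope shared within a line.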

[2] = compound: COc1cc(N2CCN(C)CC2)ccc1Nc1ncc2c(n1)N(C)c1ccccc1C(=O)N2C [XMD8-85]; conditions: top dose 8 µM; top dose inferred
Method: as §1

[3] = compound: Cc1cc(N2CCOCC2)cc2[nH]c(-c3c(NC[C@@H](O)c4cccc(Cl)c4)cc[nH]c3=O)nc12 [BMS-536924]
Method: as §1

[4] = compound: Cc1cccc(-c2[nH]c(C(C)(C)C)nc2-c2ccc3nccnc3c2)n1 [SB-525334]; conditions: top dose 20 µM; top dose inferred
Method: as §1

[5] = compound: COc1cc(-c2nn([C@H]3CC[C@H](N4CCN(C(C)=O)CC4)CC3)c3ncnc(N)c23)ccc1NC(=O)c1cc2ccccc2n1C [A-770041]; conditions: top dose 5.12 µM; top dose inferred
Method: as §1

[6] = compound: O=C(c1cc(Cc2n[nH]c(=O)c3ccccc23)ccc1F)N1CCN(C(=O)C2CC2)CC1 [Olaparib]
Method: as §1

[7] = compound: O=C1NC(=O)c2c1c(-c1ccccc1Cl)cc1[nH]c3ccc(O)cc3c21 [Wee1 inhibitor 681640]; conditions: top dose 2 µM; top dose inferred
Method: as §1

[8] = compound: CC(C)=CC[C@@H](O)C1=CC(=O)c2c(O)ccc(O)c2C1=O [Shikonin]; conditions: top dose 16 µM; top dose inferred
Method: as §1

[9] = compound: NC(=O)c1ccc(N(C(N)=O)c2c(F)cccc2F)nc1-c1ccc(F)cc1F [VX-702]; conditions: top dose 2 µM; top dose inferred
Method: as §1

[10] = compound: CCNc1cc(NC2CCC(O)CC2)nc(Nc2ccc3c(ccn3Cc3ccccc3)c2)n1 [CGP-082996 (CINK4)]; conditions: top dose 5.12 µM; top dose inferred
Method: as §1

[11] = top dose 4 µM, screen: GDSC drug entry 1091, top dose inferred
[12] = top dose 5.12 µM, screen: GDSC drug entry 62
[13] = top dose 5 µM, screen: GDSC drug entry 1017, top dose inferred
[14] = top dose 10 µM, screen: GDSC drug entry 1495

Cell Line | AUC [1] | IC50 [1] | AUC [2] | IC50 [2] | AUC [3, 11] | IC50 [3, 11] | AUC [3, 12] | IC50 [3, 12] | AUC [4] | IC50 [4] | AUC [5] | IC50 [5] | AUC [6, 13] | IC50 [6, 13] | AUC [6, 14] | IC50 [6, 14] | AUC [7] | IC50 [7] | AUC [8] | IC50 [8] | AUC [9] | IC50 [9] | AUC [10] | IC50 [10]
DB (B-cell lymphoma, suspension) | 0.845 | 8.65 µM | 0.941 | > 8 µM | 0.976 | > 4 µM | 0.983 | > 5.12 µM | 0.907 | > 20 µM | 0.983 | > 5.12 µM | 0.897 | > 5 µM | 0.901 | > 10 µM | 0.769 | 0.851 µM | 0.428 | 0.619 µM | 0.847 | 1.77 µM | 0.91 | > 5.12 µM
DEL (lymphoid neoplasm, suspension) | 0.993 | > 10 µM | 0.93 | > 8 µM | 0.918 | 3.81 µM | 0.849 | – | 0.984 | > 20 µM | 0.944 | > 5.12 µM | 0.992 | > 5 µM | 0.901 | 8.05 µM | 0.994 | > 2 µM | 0.187 | 0.155 µM | 0.994 | > 2 µM | 0.904 | 4.24 µM
DJM-1 (skin, adherent) | 0.983 | > 10 µM | 0.908 | > 8 µM | – | – | 0.909 | > 5.12 µM | 0.973 | > 20 µM | 0.988 | > 5.12 µM | 0.954 | > 5 µM | 0.899 | > 10 µM | 0.934 | > 2 µM | 0.711 | 3.91 µM | 0.978 | > 2 µM | 0.936 | > 5.12 µM
DMS-79 (small cell lung carcinoma, suspension) | 0.987 | > 10 µM | 0.959 | > 8 µM | 0.983 | > 4 µM | 0.98 | > 5.12 µM | 0.919 | > 20 µM | 0.971 | > 5.12 µM | 0.969 | > 5 µM | 0.917 | > 10 µM | 0.97 | > 2 µM | 0.965 | > 16 µM | 0.987 | > 2 µM | 0.953 | > 5.12 µM
DSH1 (bladder, adherent) | 0.989 | > 10 µM | 0.929 | > 8 µM | 0.974 | > 4 µM | 0.962 | > 5.12 µM | 0.984 | > 20 µM | 0.953 | > 5.12 µM | 0.984 | > 5 µM | 0.988 | > 10 µM | 0.96 | > 2 µM | 0.783 | 6.42 µM | 0.984 | > 2 µM | 0.961 | > 5.12 µM
DU-4475 (breast, suspension) | 0.987 | > 10 µM | 0.904 | 7.16 µM | 0.964 | > 4 µM | 0.884 | 3.78 µM | 0.964 | > 20 µM | 0.963 | > 5.12 µM | 0.984 | > 5 µM | – | – | 0.967 | > 2 µM | 0.253 | 0.232 µM | 0.992 | > 2 µM | 0.951 | > 5.12 µM
EB2 (Burkitt lymphoma, suspension) | 0.99 | > 10 µM | 0.79 | 3.21 µM | 0.988 | > 4 µM | 0.972 | > 5.12 µM | 0.968 | > 20 µM | 0.967 | > 5.12 µM | 0.99 | > 5 µM | 0.988 | > 10 µM | 0.99 | > 2 µM | 0.285 | 0.265 µM | 0.99 | > 2 µM | 0.98 | > 5.12 µM
EB-3 (Burkitt lymphoma, suspension) | 0.984 | > 10 µM | 0.869 | > 8 µM | 0.972 | > 4 µM | 0.961 | > 5.12 µM | 0.931 | > 20 µM | 0.833 | 4.08 µM | 0.984 | > 5 µM | 0.971 | > 10 µM | 0.982 | > 2 µM | 0.54 | 1.31 µM | 0.984 | > 2 µM | 0.906 | > 5.12 µM
EJM (lymphoid neoplasm, semi-adherent) | 0.991 | > 10 µM | 0.979 | > 8 µM | 0.916 | > 4 µM | 0.931 | > 5.12 µM | 0.923 | > 20 µM | 0.991 | > 5.12 µM | 0.992 | > 5 µM | 0.989 | > 10 µM | 0.98 | > 2 µM | 0.488 | 0.931 µM | 0.991 | > 2 µM | 0.99 | > 5.12 µM
EM-2 (chronic myeloid leukaemia, suspension) | 0.98 | > 10 µM | 0.929 | > 8 µM | 0.908 | > 4 µM | 0.926 | > 5.12 µM | 0.957 | > 20 µM | 0.569 | 0.507 µM | 0.978 | > 5 µM | 0.963 | > 10 µM | 0.941 | > 2 µM | 0.49 | 0.933 µM | 0.973 | > 2 µM | 0.968 | > 5.12 µM
EW-3 (Ewing sarcoma, adherent) | 0.977 | > 10 µM | 0.956 | > 8 µM | 0.732 | 1.28 µM | 0.757 | 2 µM | 0.805 | 11.8 µM | 0.984 | > 5.12 µM | 0.916 | > 5 µM | 0.717 | 2.85 µM | 0.943 | > 2 µM | 0.406 | 0.531 µM | 0.972 | > 2 µM | 0.984 | > 5.12 µM

A lower IC50 marks a more sensitive line; a limit (>, <) means that the fit lies beyond the doses tested. AUC is the area under the same curve over the 256-fold range up to the top dose, as a fraction; it is 1 without any effect and falls as sensitivity rises. The top dose, if marked as inferred, was derived from the fitted curves, not read from the paper. For some of these results: Drugs with an entry number were screened twice under separate entries, and the two screens often disagree.
